# Substitutions are numbered along the chain they refer to; changes in the protein carry UniProt numbers. Some of the results follow.
# T1: RBFOX1 RRM RbFoxmut (Fox-RRM*) (Homo sapiens, UniProt Q9NWB1 109-208, R118D;E147R;N151S;E152T)
# T1 sequence: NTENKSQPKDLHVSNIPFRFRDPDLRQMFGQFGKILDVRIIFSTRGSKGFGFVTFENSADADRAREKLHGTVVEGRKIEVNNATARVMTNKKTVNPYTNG
# B1: AACACCG (DNA:RNA)
# RNA: GGGAGACCGGAAUUCAGAUUGUCCAACACCGUUAAAUCCCGUCGUAGCCACCA
# DNA 1: CAATCTGAATTCCGGTCTCCC
# DNA 2: TGGTGGCTACGACGGGATT
# B2: GCUAGUU (DNA:RNA)
# RNA: B1 RNA with A25G, A26C, C27U, C29G, C30U, G31U
# DNA 1: CAATCTGAATTCCGGTCTCCC
# DNA 2: TGGTGGCTACGACGGGATT
# B3: UAGAGUC (DNA:RNA)
# RNA: B1 RNA with A25U, C27G, C29G, C30U, G31C
# DNA 1: CAATCTGAATTCCGGTCTCCC
# DNA 2: TGGTGGCTACGACGGGATT
# B4: CGCGGUA (DNA:RNA)
# RNA: B1 RNA with A25C, A26G, A28G, C29G, C30U, G31A
# DNA 1: CAATCTGAATTCCGGTCTCCC
# DNA 2: TGGTGGCTACGACGGGATT
# B5: AGCGUUA (DNA:RNA)
# RNA: B1 RNA with A26G, A28G, C29U, C30U, G31A
# DNA 1: CAATCTGAATTCCGGTCTCCC
# DNA 2: TGGTGGCTACGACGGGATT
# B6: UUCUCUG (DNA:RNA)
# RNA: B1 RNA with A25U, A26U, A28U, C30U
# DNA 1: CAATCTGAATTCCGGTCTCCC
# DNA 2: TGGTGGCTACGACGGGATT
# B7: GCCUAAG (DNA:RNA)
# RNA: B1 RNA with A25G, A26C, A28U, C29A, C30A
# DNA 1: CAATCTGAATTCCGGTCTCCC
# DNA 2: TGGTGGCTACGACGGGATT
# B8: GGCAAUA (DNA:RNA)
# RNA: B1 RNA with A25G, A26G, C29A, C30U, G31A
# DNA 1: CAATCTGAATTCCGGTCTCCC
# DNA 2: TGGTGGCTACGACGGGATT
# B9: ACAGUGU (DNA:RNA)
# RNA: B1 RNA with A26C, C27A, A28G, C29U, C30G, G31U
# DNA 1: CAATCTGAATTCCGGTCTCCC
# DNA 2: TGGTGGCTACGACGGGATT
# B10: CUUGUGG (DNA:RNA)
# RNA: B1 RNA with A25C, A26U, C27U, A28G, C29U, C30G
# DNA 1: CAATCTGAATTCCGGTCTCCC
# DNA 2: TGGTGGCTACGACGGGATT
# B11: GCAAGUA (DNA:RNA)
# RNA: B1 RNA with A25G, A26C, C27A, C29G, C30U, G31A
# DNA 1: CAATCTGAATTCCGGTCTCCC
# DNA 2: TGGTGGCTACGACGGGATT
# B12: AAUACAG (DNA:RNA)
# RNA: B1 RNA with C27U, C30A
# DNA 1: CAATCTGAATTCCGGTCTCCC
# DNA 2: TGGTGGCTACGACGGGATT
# B13: CAGCUGC (DNA:RNA)
# RNA: B1 RNA with A25C, C27G, A28C, C29U, C30G, G31C
# DNA 1: CAATCTGAATTCCGGTCTCCC
# DNA 2: TGGTGGCTACGACGGGATT
# B14: AGAGCCA (DNA:RNA)
# RNA: B1 RNA with A26G, C27A, A28G, G31A
# DNA 1: CAATCTGAATTCCGGTCTCCC
# DNA 2: TGGTGGCTACGACGGGATT
# B15: UAAUUGC (DNA:RNA)
# RNA: B1 RNA with A25U, C27A, A28U, C29U, C30G, G31C
# DNA 1: CAATCTGAATTCCGGTCTCCC
# DNA 2: TGGTGGCTACGACGGGATT
# B16: GCUGAGC (DNA:RNA)
# RNA: GGGAGACCGGAAUUCAGAUUGUCCGCUGAGCUUAAAUCCCGUCGUAGCCACCA
# DNA 1: CAATCTGAATTCCGGTCTCCC
# DNA 2: TGGTGGCTACGACGGGATT
# B17: GAACGGG (DNA:RNA)
# RNA: B1 RNA with A25G, C27A, A28C, C29G, C30G
# DNA 1: CAATCTGAATTCCGGTCTCCC
# DNA 2: TGGTGGCTACGACGGGATT
# B18: AUAGACC (DNA:RNA)
# RNA: B16 RNA with G25A, C26U, U27A, G30C
# DNA 1: CAATCTGAATTCCGGTCTCCC
# DNA 2: TGGTGGCTACGACGGGATT
# B19: GGGCGGA (DNA:RNA)
# RNA: B16 RNA with C26G, U27G, G28C, A29G, C31A
# DNA 1: CAATCTGAATTCCGGTCTCCC
# DNA 2: TGGTGGCTACGACGGGATT
# B20: UCAUUCC (DNA:RNA)
# RNA: B16 RNA with G25U, U27A, G28U, A29U, G30C
# DNA 1: CAATCTGAATTCCGGTCTCCC
# DNA 2: TGGTGGCTACGACGGGATT
# B21: AGACGCC (DNA:RNA)
# RNA: B1 RNA with A26G, C27A, A28C, C29G, G31C
# DNA 1: CAATCTGAATTCCGGTCTCCC
# DNA 2: TGGTGGCTACGACGGGATT
# B22: UCACAUA (DNA:RNA)
# RNA: B16 RNA with G25U, U27A, G28C, G30U, C31A
# DNA 1: CAATCTGAATTCCGGTCTCCC
# DNA 2: TGGTGGCTACGACGGGATT
# B23: CGCAUGC (DNA:RNA)
# RNA: B1 RNA with A25C, A26G, C29U, C30G, G31C
# DNA 1: CAATCTGAATTCCGGTCTCCC
# DNA 2: TGGTGGCTACGACGGGATT
# B24: GUAAUAU (DNA:RNA)
# RNA: B1 RNA with A25G, A26U, C27A, C29U, C30A, G31U
# DNA 1: CAATCTGAATTCCGGTCTCCC
# DNA 2: TGGTGGCTACGACGGGATT
# B25: CAGGAAU (DNA:RNA)
# RNA: B16 RNA with G25C, C26A, U27G, G30A, C31U
# DNA 1: CAATCTGAATTCCGGTCTCCC
# DNA 2: TGGTGGCTACGACGGGATT
# B26: UUACCCG (DNA:RNA)
# RNA: B1 RNA with A25U, A26U, C27A, A28C
# DNA 1: CAATCTGAATTCCGGTCTCCC
# DNA 2: TGGTGGCTACGACGGGATT
# B27: UUACGUG (DNA:RNA)
# RNA: B1 RNA with A25U, A26U, C27A, A28C, C29G, C30U
# DNA 1: CAATCTGAATTCCGGTCTCCC
# DNA 2: TGGTGGCTACGACGGGATT
# B28: CAACUCC (DNA:RNA)
# RNA: B1 RNA with A25C, C27A, A28C, C29U, G31C
# DNA 1: CAATCTGAATTCCGGTCTCCC
# DNA 2: TGGTGGCTACGACGGGATT
# B29: CGAUAGU (DNA:RNA)
# RNA: B16 RNA with G25C, C26G, U27A, G28U, C31U
# DNA 1: CAATCTGAATTCCGGTCTCCC
# DNA 2: TGGTGGCTACGACGGGATT
# B30: UAACAAC (DNA:RNA)
# RNA: B16 RNA with G25U, C26A, U27A, G28C, G30A
# DNA 1: CAATCTGAATTCCGGTCTCCC
# DNA 2: TGGTGGCTACGACGGGATT
# B31: UACUGAC (DNA:RNA)
# RNA: B1 RNA with A25U, A28U, C29G, C30A, G31C
# DNA 1: CAATCTGAATTCCGGTCTCCC
# DNA 2: TGGTGGCTACGACGGGATT
# Biological target: T1, RBFOX1 RRM RbFoxmut (Fox-RRM*)
# Test: EMSA; HiTS-Eq, 1 nM pool, 10 min; buffer printed only for the single-RNA assays: 10 mM Tris pH 7.5, 150 mM NaCl, 3.4 mM EDTA, 0.001% NP-40, 30 C
# Settings: tags: His6 N-terminal (pET28a); label: 5' 32P
# Method in brief: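 Relative association constants, normalised to the cognate motif, were derived by comparing read counts of each RNA species with those of the control reaction. The RNA sequenced was the free fraction, separated by 8% native PAGE after a 10 min equilibration in 50 µL of 1 nM 5′-radiolabelled RNA (7 randomized nucleotides) with increasing concentrations of purified wild-type or mutant RbFox RRM.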
row,Binder,binding signal
1,B1,0.112 KA relative to UGCAUGU
2,B2,0.114 KA relative to UGCAUGU
3,B3,0.0745 KA relative to UGCAUGU
4,B4,0.174 KA relative to UGCAUGU
5,B5,0.113 KA relative to UGCAUGU
6,B6,0.0908 KA relative to UGCAUGU
7,B7,0.0997 KA relative to UGCAUGU
8,B8,0.0922 KA relative to UGCAUGU
9,B9,0.16 KA relative to UGCAUGU
10,B10,0.0693 KA relative to UGCAUGU
11,B11,0.131 KA relative to UGCAUGU
12,B12,0.106 KA relative to UGCAUGU
13,B13,0.113 KA relative to UGCAUGU
14,B14,0.0915 KA relative to UGCAUGU
15,B15,0.0886 KA relative to UGCAUGU
16,B16,0.102 KA relative to UGCAUGU

row,Binder,binding signal
1,B17,0.125 KA relative to UGCAUGU
2,B18,0.0619 KA relative to UGCAUGU
3,B19,0.0925 KA relative to UGCAUGU
4,B20,0.0698 KA relative to UGCAUGU
5,B21,0.06 KA relative to UGCAUGU
6,B22,0.112 KA relative to UGCAUGU
7,B23,0.951 KA relative to UGCAUGU
8,B24,0.136 KA relative to UGCAUGU
9,B25,0.0834 KA relative to UGCAUGU
10,B26,0.0805 KA relative to UGCAUGU
11,B27,0.0946 KA relative to UGCAUGU
12,B28,0.0674 KA relative to UGCAUGU
13,B29,0.092 KA relative to UGCAUGU
14,B30,0.0642 KA relative to UGCAUGU
15,B31,0.0891 KA relative to UGCAUGU

# Source: article PMC9911399, “Two distinct binding modes provide the RNA-binding protein RbFox with extraordinary sequence specificity”
